{"source": "PubChem BioAssay AID886", "about": "(National Center for Advancing Translational Sciences (NCATS), 2007)", "note": "Several values for one entry are separate records, joined by “and”; a condition that tells them apart may be missing. Equal entries are not always repeated. Screen size: about 73,000 compounds; about 2,500 (3.4%) were called active. The inconclusive results got no clear call from the source; some entries with a clear call stand among them for comparison. Calls come from the whole dose curve; as a rule, active = well fitted inhibition curve with a large enough effect; inconclusive = small, poorly fitted or top-dose-only effect; inactive = no such curve, though single readings can be large or run the other way. A potency beside an inconclusive call is a rough fit, not a confirmed value.", "data": [{"molecular_target": "3-hydroxyacyl-CoA dehydrogenase type-2 (Homo sapiens) (UniProt Q99714)", "assay": "qHTS Assay for Inhibitors of HADH2 (Hydroxyacyl-Coenzyme A Dehydrogenase, Type II); note: nearly all actives have a fitted effect of over 60% in size; note: potency is the fitted concentration of half-maximal effect; tags give direction and shape of the fitted curve; for activity change, negative = inhibition: % is set by controls: 0 for no effect and ±100 for the full control effect", "conditions": "recombinant HADH2, NADH fluorescence, beta-hydroxybutyryl-CoA; activity change, negative = inhibition: at 57.1 µM (top of the series)", "in_short": "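20 nM HADH2 + cpd, 15 min RT; add 1 mM NAD+/90 uM beta-hydroxybutyryl-CoA; kinetic fluorescence 360/450 nm, 4 min. Tris-HCl pH 9.0, 0.01% Tween-20.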", "values": [{"compound": "CC1=C(C(=O)OCc2ccccc2)C(c2ccco2)C2=C(CC(C)(C)CC2=O)N1", "note": "(stereo unspecified)", "Potency": "inconclusive: 39.8 µM [inhibitor, single point]"}, {"compound": "O=C(Nc1ccc(Cl)cc1F)C1CCN(S(=O)(=O)c2cccnc2)CC1", "activity change, negative = inhibition": "inactive: 3.04%"}, {"compound": "CCN(C(C)=O)c1nc(CSc2nnc(NC(C)C)s2)cs1", "Potency": "inconclusive: 25.1 µM [inhibitor, single point]"}, {"compound": "CCCCCCC#Cc1cc(OC)c(OC)cc1C(N1CC(C)c2ccccc21)N1CC(C)c2ccccc21", "note": "(stereo unspecified)", "activity change, negative = inhibition": "inactive: 5.46% [at 11.4 µM]"}, {"compound": "Cc1c(C)c2ccc(OC3CCCCC3=O)cc2oc1=O", "note": "(stereo unspecified)", "Potency": "inconclusive: 39.8 µM [inhibitor, single point]"}, {"compound": "O=C(Nc1nc(-c2ccco2)c(-c2ccco2)s1)C1CC(=O)N(c2ccc3c(c2)OCCO3)C1", "note": "(stereo unspecified)", "Potency": "active: 3.98 µM"}, {"compound": "CC(=O)c1c[nH]c2ccc(C)cc2c1=O", "Potency": "inconclusive: 15.8 µM [inhibitor, partial curve]"}, {"compound": "Cc1ccc2nc3c(cc(C(=O)NCc4ccccc4)c(=N)n3CCCn3ccnc3)c(=O)n2c1", "Potency": "active: 25.1 µM"}, {"compound": "COC(=O)[C@@]1(C)C=C[C@@H](Cc2ccccc2)N1C(=O)c1ccccc1", "activity change, negative = inhibition": "inactive: 7.24%"}, {"compound": "O=C(CSc1ncn(-c2ccccc2)n1)c1cccs1", "Potency": "inconclusive: 12.6 µM [inhibitor, partial curve]"}, {"compound": "O=C(Nc1nc2ccc(S(=O)(=O)N3CCCC3)cc2s1)c1cccs1", "Potency": "inconclusive: 39.8 µM [inhibitor, single point]"}, {"compound": "NC(=O)c1c(N)sc2c1CCCCC2", "Potency": "inconclusive: 0.126 µM [inhibitor, full curve]"}, {"compound": "O=C(CN(C1CCCCC1)S(=O)(=O)c1ccc(Cl)cc1)NCc1ccncc1", "activity change, negative = inhibition": "inactive: 1.09%"}, {"compound": "COc1cc2ccc(=O)oc2c(O)c1OCC=C(C)C", "Potency": "inconclusive: 3.16 µM [inhibitor, full curve] and inconclusive: 10 µM [inhibitor, partial curve]"}, {"compound": "CN1CCN(c2ncc3nc(-c4ccc(F)cc4)c(=O)n(Cc4cccs4)c3n2)CC1", "activity change, negative = inhibition": "inactive: 6.58%"}, {"compound": "Cc1ccsc1C1NC(=O)c2c(sc3c2CCN(C)C3)N1", "note": "(stereo unspecified)", "Potency": "inconclusive: 39.8 µM [inhibitor, single point]"}, {"compound": "C=CCNC(=O)c1ccccc1Cl", "activity change, negative = inhibition": "inactive: 5.3%"}, {"compound": "COC(=O)c1ccc(COc2ccc3c(C)c(C)c(=O)oc3c2)o1", "Potency": "inconclusive: 7.94 µM [inhibitor, single point]"}, {"compound": "CN(C)C=NC(=O)/C(C#N)=C1\\CCc2ccccc2N1", "activity change, negative = inhibition": "inactive: -25.7%"}, {"compound": "CC1=C(C(N)=O)C(c2cccc(O)c2)n2nc(CCCO)nc2N1", "note": "(stereo unspecified)", "activity change, negative = inhibition": "inactive: -7.49%"}, {"compound": "Cn1c(C(=O)N2CCN(Cc3ccccc3)CC2)cc2c(=O)n(C)c3ccccc3c21", "Potency": "inconclusive: 20 µM [inhibitor, partial curve]"}, {"compound": "CC(C)[C@@H](CC(=O)N[C@@H]1CCCC[C@H]1C(=O)N[C@H](CC(=O)N[C@@H](CCC(=O)O)CC(=O)O)Cc1c[nH]c2ccccc12)NC(=O)C[C@H](Cc1ccccc1)NC(=O)[C@@H]1CNCC[C@H]1N", "Potency": "inconclusive: 31.6 µM [inhibitor, single point]"}, {"compound": "Cc1[nH]c2ccccc2c1Cc1nnc(SCC(=O)NCc2ccco2)o1", "Potency": "inconclusive: 25.1 µM [inhibitor, partial curve]"}, {"compound": "CCCCOC(=O)CSc1nc(N)c(C#N)c(-c2ccc(OCC)cc2)c1C#N", "Potency": "inconclusive: 39.8 µM [inhibitor, single point]"}, {"compound": "CC1(C)CC(=O)C=C(NCC2CCCO2)C1", "note": "(stereo unspecified)", "Potency": "inconclusive: 7.94 µM [inhibitor, single point]"}, {"compound": "COc1ccc(COC2OC[C@]3(C)[C@H]4C5=C(CN3C(=O)OC(C)(C)C)[C@H](C)C(CO)C(CO)C5CC[C@@H]24)cc1", "note": "(stereo partly specified)", "activity change, negative = inhibition": "inactive: 4.84%"}, {"compound": "CC(=O)NCCCc1c[nH]c2ccc(Cl)cc12", "Potency": "inconclusive: 6.31 µM [inhibitor, single point]"}, {"compound": "CCOc1ccc(S(=O)(=O)n2nc(C)cc2C)c2ccccc12", "Potency": "inconclusive: 39.8 µM [inhibitor, single point]"}, {"compound": "O=C(CSc1ncccn1)c1ccccc1Br", "Potency": "inconclusive: 25.1 µM [inhibitor, partial curve]"}, {"compound": "O=S(=O)(Nc1nc2ccccc2[nH]1)c1ccccc1", "Potency": "inconclusive: 31.6 µM [inhibitor, single point]"}, {"compound": "COc1ccccc1CNc1ncnc2ccc(-c3ccc4c(c3)OCO4)cc12", "Potency": "inconclusive: 25.1 µM [inhibitor, single point]"}, {"compound": "CCCc1cc(=O)oc2cc(C)c3c(C)coc3c12", "activity change, negative = inhibition": "inactive: 17.4%"}, {"compound": "CCOc1ccc2oc(-c3ccccc3)c(C(=O)N3CCN(C)CC3)c2c1", "Potency": "inconclusive: 39.8 µM [inhibitor, single point]"}, {"compound": "Oc1ccccc1Cn1c(-c2ccccc2O)nc2ccccc21", "Potency": "active: 25.1 µM"}, {"compound": "O=C1OC2(c3ccc(O)cc3Oc3cc(O)ccc32)c2c1c(-c1ccccc1)c(-c1ccccc1)c(-c1ccccc1)c2-c1ccccc1", "Potency": "active: 2 µM"}, {"compound": "CC1CCCN(CC(=O)Nc2ccc(S(=O)(=O)NC3CCCCC3)cc2)C1", "note": "(stereo unspecified)", "activity change, negative = inhibition": "inactive: -4.53%"}, {"compound": "COc1ccc(N2CC(C(=O)NCCc3ccc(OC)c(OC)c3)CC2=O)cc1", "note": "(stereo unspecified)", "activity change, negative = inhibition": "inactive: 12.2% [at 11.4 µM]"}, {"compound": "N[C@@H](C(=O)O)c1ccc(O)c(C(=O)O)c1", "Potency": "active: 39.8 µM"}, {"compound": "CCN(CC)C(=O)Cn1cnc2ccccc2c1=O", "activity change, negative = inhibition": "inactive: -4.05%"}, {"compound": "Cc1cc(C(F)(F)F)nn1CCCNC(=O)c1cnccn1", "activity change, negative = inhibition": "inactive: -5.38%"}, {"compound": "CCC(C)(C)NC(=O)CN(C(=O)c1snc(C(N)=O)c1N)c1ccc2c(c1)OCCO2", "activity change, negative = inhibition": "inactive: 9.14%"}, {"compound": "CCOCC(=O)Nc1ccccc1C(=O)OCC", "Potency": "inconclusive: 39.8 µM [inhibitor, single point]"}, {"compound": "COC(=O)c1cc(CSc2nnc(NC3CCCCC3)s2)oc1C", "Potency": "inconclusive: 39.8 µM [inhibitor, single point]"}, {"compound": "NC(=O)c1cc2ccc(O)cc2oc1=Nc1ccccc1", "Potency": "inconclusive: 12.6 µM [inhibitor, partial curve]"}, {"compound": "CCCC/C=C/C(NC(=O)Oc1cccc(C(F)(F)F)c1)c1ccccc1", "note": "(stereo unspecified)", "activity change, negative = inhibition": "inactive: 4.27%"}, {"compound": "COC(=O)c1ccccc1NC(=O)c1cnn2c(C(F)F)cc(C3CC3)nc12", "Potency": "active: 6.31 µM"}]}]}
